Reference: PMC4336329 (PLoS ONE, 2015)
The campaign covered roughly 310,000 compounds. About 2,200 (0.71%) showed an effect of 50% or more. The effect is printed as a negative number. Some of the results follow.

Target: human ether-à-go-go-related gene (hERG) potassium channel (human, UniProt Q12809)
Test: primary screen, population patch clamp on CHO cells stably expressing hERG

human ether-à-go-go-related gene (hERG) potassium channel, sequence (Q12809 whole entry, looked up): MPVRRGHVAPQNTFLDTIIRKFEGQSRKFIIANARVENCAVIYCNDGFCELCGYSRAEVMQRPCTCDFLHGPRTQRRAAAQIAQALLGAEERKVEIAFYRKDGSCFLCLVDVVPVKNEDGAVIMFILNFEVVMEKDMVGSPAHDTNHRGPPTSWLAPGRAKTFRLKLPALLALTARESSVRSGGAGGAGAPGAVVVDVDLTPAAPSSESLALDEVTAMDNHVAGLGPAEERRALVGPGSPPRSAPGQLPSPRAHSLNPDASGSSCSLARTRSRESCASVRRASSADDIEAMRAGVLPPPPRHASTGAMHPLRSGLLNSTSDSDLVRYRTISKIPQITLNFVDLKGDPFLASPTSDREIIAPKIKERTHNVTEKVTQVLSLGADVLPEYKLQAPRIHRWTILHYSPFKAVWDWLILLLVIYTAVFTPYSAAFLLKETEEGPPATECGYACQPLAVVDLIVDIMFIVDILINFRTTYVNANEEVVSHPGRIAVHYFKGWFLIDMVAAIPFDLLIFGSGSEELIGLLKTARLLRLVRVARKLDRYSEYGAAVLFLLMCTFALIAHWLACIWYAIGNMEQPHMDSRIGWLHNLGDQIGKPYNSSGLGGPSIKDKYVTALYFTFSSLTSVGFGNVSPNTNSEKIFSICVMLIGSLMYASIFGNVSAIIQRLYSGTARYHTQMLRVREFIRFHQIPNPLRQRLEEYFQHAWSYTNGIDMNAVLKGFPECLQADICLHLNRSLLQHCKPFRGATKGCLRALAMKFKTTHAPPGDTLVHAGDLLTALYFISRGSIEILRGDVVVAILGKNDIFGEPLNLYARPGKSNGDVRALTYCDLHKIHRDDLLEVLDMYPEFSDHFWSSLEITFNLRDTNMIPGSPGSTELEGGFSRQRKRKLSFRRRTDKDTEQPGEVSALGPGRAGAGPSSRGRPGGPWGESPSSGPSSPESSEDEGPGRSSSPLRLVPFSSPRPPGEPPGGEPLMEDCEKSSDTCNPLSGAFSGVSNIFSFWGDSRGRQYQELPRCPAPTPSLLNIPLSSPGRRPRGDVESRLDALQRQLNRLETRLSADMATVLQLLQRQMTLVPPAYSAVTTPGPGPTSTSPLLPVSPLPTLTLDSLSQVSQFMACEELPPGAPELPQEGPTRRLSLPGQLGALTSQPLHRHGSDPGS

SMILES | hERG current change (%, negative = inhibition) at 1uM [%]
Cc1ccc(NC(=O)CSc2n[nH]c(-c3ccccn3)n2)cc1 | -1.35
CCOc1cc(C(C(=O)NCC2CCCO2)N(C(=O)Cn2nnc3ccccc32)c2ccc(NC(C)=O)cc2)ccc1O (stereo not drawn) | 13.2
Cc1cc(C)n(CCCNC(=O)C(C)(C)Oc2ccc(Cl)cc2)n1 | 11.5
COCCCNC(=O)c1c(F)c(F)c(F)c(F)c1F | 9.89
CN(Cc1cn(C)nc1-c1ccccc1F)Cc1nccn1C | 17.8
Fc1ccc2[nH]c3c(c2c1)CN(C(=S)NCc1ccccc1)CC3 | 11.5
O=C(O)/C=C/c1cccc(OCc2ccccc2)c1 | 10.4
Cc1sc2ncnc(N3CCC(C(=O)N(C)CC(=O)Nc4ccccc4Cl)CC3)c2c1C | -30
CCC(C)c1ccc(OCC(=O)NNC(=O)C2CCCCC2)cc1 (stereo not drawn) | 9.76
O=C(C1CCC1)N(CCc1ccccc1)Cc1nc2ccccc2c(=O)[nH]1 | 9.63
Cc1ccc(S(=O)(=O)/C(C#N)=C/c2c[nH]c3ccccc23)cc1 | 3.4
Fc1cccc(NC(=S)NCC(c2cccnc2)N2CCOCC2)c1 (stereo not drawn) | 5.02
Fc1ccc2cnc(-c3ccccc3)c(-c3ccc(C(F)(F)F)cc3)c2c1 | 11.5
Cc1ccccc1C(=O)NC(=S)NC1CCS(=O)(=O)C1 (stereo not drawn) | 5.32
COc1ccc(C(=O)Nc2ccccc2C(=O)N2CCN(c3ccccc3)CC2)cc1 | 13.7
COc1cc2c(cc1OC)CN(CC(=O)Nc1ccc(S(=O)(=O)N3CCCC3)cc1)CC2 | 11
CCn1c(SCC(=O)Nc2ccccc2C)nc2nc3c(cc2c1=O)COC(C)(C)C3 | 8.88
Cc1ccc(S(=O)(=O)NC(=O)NC(C)Cc2ccccc2)cc1 (stereo not drawn) | 21.2
O=C(O)c1cc(=O)c2ccccc2o1 | 16.1
Cn1c(=O)[nH]c(=O)c2c1nc(N1CCOCC1)n2CC(O)COc1ccccc1 (stereo not drawn) | -0.376
COc1ccc(OC)c(-c2csc(NC(=O)CN3C(=O)C4CCCCC4C3=O)n2)c1 (stereo not drawn) | 11.6
Cc1ccc(C(=O)Nc2ccc3nc(C)sc3c2)s1 | 14.8
Cc1cc2ncc(S(=O)(=O)C(C)(C)C)c(N)n2n1 | 11.3

SMILES | hERG current change (%, negative = inhibition) at 1uM [%]
CCN1CCN(CC(=O)Nc2ccc(Cl)c(S(=O)(=O)N(C)C)c2)CC1 | 7.32
CC(C)CN1CCN(Cc2cccc3cccnc23)CC1CCO (stereo not drawn) | 3.22
C[C@@H]1Cc2c(O)c(O)cc(O)c2C(=O)O1 | 15.4
Cl.Cn1c(O)c(C=NCCCN2CCCC2=O)c(=O)n(C)c1=O.O=C(O)C(=O)O | 16.9
CC(SCc1cn2cc(Cl)ccc2n1)C(=O)O (stereo not drawn) | 12
COC(=O)C1=CN(C2CC2)C=C(C(=O)OC)C1c1ccc(C(=O)OC)cc1 | 20.6
Cc1ccc(NC(=O)c2cc(S(=O)(=O)N3CCOCC3)cn2C)cc1F | -5.36
CC(=O)OCC1(C)CN(c2ccccc2)N(C(C)=O)C1=O (stereo not drawn) | 1.84
CCc1ccc(S(=O)(=O)Nc2c(NC3CCCCC3)c3ccccc3oc2=O)cc1 | 8.84
CCOC(=O)C1CCCN(C(=O)C2CCCN(S(C)(=O)=O)C2)C1 (stereo not drawn) | 5.45
COc1ccc(N2CC(C(=O)N/N=C/c3c[nH]c4ccccc34)CC2=O)cc1 (stereo not drawn) | 15.1
COc1cccc(N2CCN(C(C)C(=O)NC34CC5CC(CC(C5)C3)C4)CC2)c1 (stereo not drawn) | -2.17
CC1CN(C(=O)COC(=O)CSc2ccc(C(N)=O)cc2[N+](=O)[O-])CC(C)O1 (stereo not drawn) | 4.42
O=C1Cn2c(nc3ccccc32)N1c1ccccc1F | 6.38
C=CCN1C(=S)CC(c2ccccc2)=Nc2ccccc21 | 17.4
CCc1ccc(C(=O)CSc2n[nH]c(-c3ccncc3)n2)cc1 | 12.9
COC(=O)CC1(C(=O)OC)Oc2ccc(Br)cc2C(=O)N1c1cc(Cl)c(Cl)cc1Cl (stereo not drawn) | 13.9
CC1C(=O)N2CCCc3cc(NS(C)(=O)=O)cc1c32 (stereo not drawn) | 7.05
CN(C(=O)COC(=O)c1sc2ccccc2c1Cl)C1CCCCC1 | 5.21
CC1CCN(c2ccc3nnc(CCC(=O)Nc4ccc(F)cc4)n3n2)CC1 | -1.45
CCCC(CCC)C(=O)Nc1cccc(C(=O)O)c1 | -11.2
COc1ccc(C(=O)c2oc3ccccc3c2NC(C)=O)cc1 | 5.32
